PubChem BioAssay AID588855 (National Center for Advancing Translational Sciences (NCATS), 2011)
Among all 410,000 compounds or so, about 5,000 (1.2%) were called active. This list was built around the results that the source calls inconclusive (neither active nor inactive); the mix of calls is not that of the screen. The call rests on the fitted dose curve; in most records, active means well fitted inhibition curve with a large enough effect; inconclusive means small, poorly fitted or top-dose-only effect; inactive means no such curve, though single readings can be large or run the other way. Where the call is inconclusive, the potency comes from a doubtful curve fit.
Potency means the concentration at half of the fitted maximal effect; tags describe the fitted curve by direction and shape.

Assay: qHTS for Inhibitors of TGF-b; further: nearly all actives have a fitted effect of over 65% in size
Settings: HepG2 CAGA-GFP TGF-b/SMAD3 reporter, GFP fluorescence, 18 h, TGF-beta stimulated, 500 pg/mL final; series mostly up to 46.1 µM
Outline: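 Inhibition of TGF-beta-driven CAGA-GFP reporter expression in HEPG2 cells is measured by cellular GFP fluorescence after 18 h stimulation with 500 pg/mL recombinant TGF-beta in 1% FBS medium at 37 degrees C.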
In the case of `O=C(NCC(c1ccc2c(c1)OCO2)N1CCN(c2ccccc2)CC1)c1ccccc1F` (stereo not given), the Potency was “inactive”.
For `C/C(CC(=O)Nc1ccc(Cl)c(C(F)(F)F)c1)=N\NC(=O)c1cc2ccccc2cc1O`, the Potency was inconclusive: 0.501 µM [inhibitor, full curve, poor fit].
In the case of `Cc1ccc(NC(=O)c2c(Nc3ccccc3C)sc(C(=O)c3ccccc3)c2N)cc1`, the Potency was inconclusive: 35.5 µM [inhibitor, single point].
For `O=C(C1CCN(S(=O)(=O)c2ccc(Cl)s2)CC1)N1CCN(c2ccccc2)CC1`, the Potency was inconclusive: 28.2 µM [inhibitor, single point].
With `CCc1nn(CC(=O)NC(C)C)c(=O)c2cc3cc(F)ccc3n12` the Potency was “inactive”.
With `CC[C@H](C)C(C(=O)N1CCN(C(=O)OC(C)(C)C)CC1)n1cc(C(CC(C)C)NC(=O)OC(C)(C)C)nn1` (stereo not given in full) the Potency was inconclusive: 3.16 µM [inhibitor, single point].
For `CC1CN(/C=C/C=O)C(C)CC1OC(=O)c1ccccc1` (stereo not given), the Potency was inconclusive: 35.5 µM [inhibitor, single point].
In the case of `CCOc1ccc(C(=O)N2CCN(c3cccc(Cl)c3)CC2)cc1`, the Potency was inconclusive: 15.8 µM [inhibitor, single point].
In the case of `COc1ccc(CN(CCC(c2ccc3c(c2)OCO3)c2ccccc2OC)C(C)=O)cc1` (stereo not given), the Potency was active: 12.6 µM.
For `CC(C)c1ccc(CN2CCN(C(=O)CSc3nnnn3C3CC3)CC2)cc1`, the Potency was inconclusive: 7.08 µM [inhibitor, full curve].
For `CN1C(=O)c2ccccc2Sc2ccc(NC(=O)Nc3ccccc3F)cc21`, the Potency was “inactive”.
With `Cn1nnnc1SCC(=O)NC1CCCc2ccccc21` (stereo not given) the Potency was “inactive”.
For `CCCC(=O)OCCNc1cc(SCCC(=O)OC)c2nonc2c1[N+](=O)[O-]`, the Potency was inconclusive: 1.58 µM [inhibitor, partial curve, poor fit].
In the case of `CCOC(=O)Cn1nc(-c2ccccc2)nc1-c1ccccc1`, the Potency was “inactive”.
With `COc1ccccc1C(=O)NCCC(=O)Nc1nc2ccccc2[nH]1` the Potency was “inactive”.
In the case of `CCN(CC)c1ccc(CNc2nc3ccccc3n2CCN2CCCCC2)cc1`, the Potency was inconclusive: 11.2 µM [inhibitor, partial curve, poor fit].
In the case of `CCN(CC)c1ccc(/C=N/NC(=S)NCc2ccccc2)c(O)c1`, the Potency was inconclusive: 12.6 µM [inhibitor, single point].
For `Cc1cccn2c(=O)c(/C=C(\C#N)c3nc4ccccc4n3C)c(Oc3ccc(Br)cc3)nc12`, the Potency was “inactive”.
With `CCN(c1ccccc1)S(=O)(=O)c1ccc(NC(=O)c2ccco2)cc1` the Potency was “inactive”.
For `CN(C(=O)c1ccccc1F)C(c1ccccc1)c1ccccc1`, the Potency was “inactive”.
